In all, about 410,000 compounds went through this assay and about 850 (0.21%) were called active. This list was built around the results that the source calls inconclusive (neither active nor inactive); the mix of calls is not that of the screen. Calls follow the shape of the dose curve; as a rule, active = well fitted inhibition curve with a large enough effect; inconclusive = small, poorly fitted or top-dose-only effect, or another doubt; inactive = no such curve, though single readings can be large or run the other way. Potencies of inconclusive entries are left out as doubtful fits.
target: Glutaminase kidney isoform, mitochondrial (Homo sapiens) (UniProt O94925); assay: qHTS for Inhibitors of Glutaminase (GLS); details: GLS enzymatic activity, qHTS titration; series mostly up to 45.5 µM; activity change, negative = inhibition: at the top concentration
How it was run: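 hKGA in 45 mM KH2PO4 (pH 8.2), 0.02% Tween-20 with compound, then 1mM L-Glutamine (stock as added) plus glutamate oxidase/HRP/Amplex red coupling mix. Fluorescence read initially and after 30 min at RT; signal change reflects glutamate formation.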
% is scaled to controls: 0 for no effect and ±100 for the full control effect; potency is read from the fitted curve at half-maximal effect; tags tell the direction and shape of the fitted curve.

Chain of UniProt O94925 (O94925 whole entry, looked up, canonical isoform): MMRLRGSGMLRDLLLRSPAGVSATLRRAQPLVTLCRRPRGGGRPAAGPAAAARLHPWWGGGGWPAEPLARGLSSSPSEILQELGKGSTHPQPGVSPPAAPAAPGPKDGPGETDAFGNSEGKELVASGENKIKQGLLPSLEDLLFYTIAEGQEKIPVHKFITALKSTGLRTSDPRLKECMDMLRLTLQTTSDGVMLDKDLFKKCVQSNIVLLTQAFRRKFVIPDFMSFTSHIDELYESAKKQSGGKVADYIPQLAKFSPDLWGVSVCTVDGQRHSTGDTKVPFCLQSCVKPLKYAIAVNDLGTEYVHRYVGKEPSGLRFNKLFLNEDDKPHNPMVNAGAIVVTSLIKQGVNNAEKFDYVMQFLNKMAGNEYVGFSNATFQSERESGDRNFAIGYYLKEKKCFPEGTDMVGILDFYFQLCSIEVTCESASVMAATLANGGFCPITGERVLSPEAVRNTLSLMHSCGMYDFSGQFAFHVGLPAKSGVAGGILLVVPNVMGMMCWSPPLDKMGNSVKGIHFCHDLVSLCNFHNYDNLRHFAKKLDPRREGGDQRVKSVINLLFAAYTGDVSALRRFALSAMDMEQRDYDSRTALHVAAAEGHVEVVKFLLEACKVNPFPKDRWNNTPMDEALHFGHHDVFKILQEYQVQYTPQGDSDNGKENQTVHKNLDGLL

| Structure (SMILES) | activity change, negative = inhibition | Potency |
| --- | --- | --- |
| Cc1cccc(-n2nc3c(c2NC(=O)CCCl)CSC3)c1 | inactive: 10.4% |  |
| COc1ccc(-n2c(-c3ccc(Cl)cc3Cl)n[nH]c2=S)c(OC)c1 |  | active: 11.2 µM |
| CNC(=O)C(=O)NCC(c1cccs1)S(=O)(=O)c1ccc(F)cc1 (stereo not drawn) |  | inconclusive [inhibitor, single point] |
| CCOC(=O)CSc1nc2sc3c(c2c(=O)n1-c1ccc(OCC)cc1)CCN(C)C3 |  | inconclusive [inhibitor, single point] |
| Cc1ccc(-c2nc(C#N)c(NCC3CCCO3)o2)cc1 (stereo not drawn) |  | inconclusive [inhibitor, partial curve] |
| COc1ccccc1CN1Cc2cccc3c2[C@@H](CC1=O)[C@H](O)[C@H](O)C3 |  | inconclusive [inhibitor, partial curve, poor fit] |
| O=C(O)CCCCCN1C(=O)/C(=C\c2ccc(-c3ccc(Cl)cc3)o2)SC1=S |  | inconclusive [inhibitor, single point] |
| O=C1c2ccccc2CC1Sc1nnc(-c2ccccn2)o1 (stereo not drawn) |  | inconclusive [inhibitor, partial curve, poor fit] |
| S=c1[nH]nc(-c2ccco2)n1-c1ccccc1Cl | inactive: -16.8% |  |
| Cc1ccc(/C(=N/Nc2nc3ccccc3s2)C2=C(O)c3ccccc3C2=O)cc1 |  | inconclusive [inhibitor, partial curve, poor fit] |
| COc1cc(/C=N/Nc2ccc(C(=O)O)cc2)cc(OC)c1OC | inactive: 18.7% |  |
| C=CCOc1c(OC)cc(/C=N/Nc2cccc(C(=O)O)c2)c(Br)c1Br |  | inconclusive [inhibitor, partial curve, poor fit] |
| CCN(CC)c1ccc(/C=C2/C(=O)c3ccc(C(=O)O)cc3C2=O)cc1 |  | inconclusive [inhibitor, single point] |
| COc1cc([N+](=O)[O-])ccc1NC(=O)Cn1ccsc1=N |  | inconclusive [inhibitor, single point] |
| O=C(O)c1ccc(/C=N/Nc2cccc(C(F)(F)F)c2)cc1 |  | active: 14.1 µM |
| CCN(CC)c1ccc(/C=C2\C(=O)c3ccc(C(=O)O)cc3C2=O)cc1 |  | inconclusive [inhibitor, single point] |
| C[C@H](CO)N1C[C@H](C)[C@@H](CN(C)S(C)(=O)=O)Oc2c(NC(=O)c3ccncc3)cccc2C1=O |  | inconclusive [inhibitor, single point] |
| CCOC(=O)/C(=C\C=C1/Sc2cc(OCC)c(OCC)cc2N1CC)C(C)=O |  | inconclusive [inhibitor, partial curve, poor fit] |

From PubChem BioAssay AID624170 (National Center for Advancing Translational Sciences (NCATS), 2012)
